Experimental data taken from paper PMC12136788.
This is one part of the list.

T1: UNK ZnF1-6 (called full-length) (human, UniProt Q9C0B0 30-357)
T1 sequence: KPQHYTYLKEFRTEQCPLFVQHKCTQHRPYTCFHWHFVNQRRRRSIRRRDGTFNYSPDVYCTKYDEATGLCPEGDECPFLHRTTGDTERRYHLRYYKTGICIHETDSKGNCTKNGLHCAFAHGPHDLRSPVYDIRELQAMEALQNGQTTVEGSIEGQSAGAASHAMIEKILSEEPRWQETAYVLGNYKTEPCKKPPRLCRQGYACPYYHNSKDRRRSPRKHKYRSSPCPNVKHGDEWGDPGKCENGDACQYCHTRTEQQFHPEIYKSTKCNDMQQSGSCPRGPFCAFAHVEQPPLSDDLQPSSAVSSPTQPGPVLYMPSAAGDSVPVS

B1: chr8:140515610:140515764:+|3pUTR|ENSG00000104472|unk|FALSE|unique (ssRNA)
RNA: GGGAGUUCUACAGUCCGACGAUCUUUUGGAAUCAGUUCUUAUAAACAGCUCGAUUCAGUUUUAGCUAAAUUUAUAGUUUAGGUAGUAUGUUACAUUUGAAUUUUUGUCUUAAGAAAAGUUGACUGUUCAGAUAUUUUUCUACUCAACAGAGGAUUGAGCAUCA
B2: chr3:196828865:196828966:+|3pUTR|ENSG00000180370|msi1|total|mutant (ssRNA)
RNA: GGGAGUUCUACAGUCCGACGAUCUGCUCCUUUUGAGUUGCUUUUGCGUUUCUCAUGCCCCGGCAAGUGUAACCGAAAUUAUGCCGCUCCUUAUGUUGGCAAAGGAGCUCUAUACCGUUUCACUUUGUAUAAAAGUCCGGACCACAACAGAGGAUUGAGCAUCA
B3: chr1:93888438:93888539:-|3pUTR|ENSG00000023909|msi1|total|mutant (ssRNA)
RNA: GGGAGUUCUACAGUCCGACGAUCAGAUAUUUUUCCUGUCAUUGAUGAGAUAUAUCAGAGUAACUGGAGCCGCUGGGAUUUACCCGCCGUGUAAAUAAAAUUCACUCUUCAAUACAUGAAUGGAAACUUAAAUUUUUUUUUAUGCAACAGAGGAUUGAGCAUCA
B4: chr8:22006149:22006250:+|3pUTR|ENSG00000130227|msi1|FALSE|unique (ssRNA)
RNA: GGGAGUUCUACAGUCCGACGAUCGAAUGUAUGAACUGGAGGAAGUUACUACAGUGGAAGGGUUCUUAAUAACAAGGUCUACCUAGCAUGAAGUAUUUAACAUUCUCCCAUCCCUUAAAAAAUAUACAUUUUUAUAAAAUGAAACAACAGAGGAUUGAGCAUCA
B5: chr4:113382420:113382521:+|3pUTR|ENSG00000145362|msi1|FALSE|bound_elsewhere (ssRNA)
RNA: GGGAGUUCUACAGUCCGACGAUCUCUUCAGGUCUUUAGAUCUUGGACAAGUUGGCAGGGUAUUUUAAAAGCUAUAACUACUGUAGUUUUCCAGUUUUCAUUGCUGCUUUAGCAAACCACGCUGUCUUACAGUGGUACUUUCUUCAACAGAGGAUUGAGCAUCA
B6: chr8:41262982:41263083:-|3pUTR|ENSG00000104332|msi1|FALSE|unique (ssRNA)
RNA: GGGAGUUCUACAGUCCGACGAUCCAACCGGGCCCUCUCUCUGCGGCAGAGUCCUUAGUGGAGGGGUUUACCUGGAACAUUAGUAGUUACCACAGAAUACGGAAGAGCAGGUGACUGUGCUGUGCAGCUCUCUAAAUGGGAAUUCAACAGAGGAUUGAGCAUCA
B7: chr4:109463114:109463221:+|CDS|ENSG00000138802|unk|total|mutant (ssRNA)
RNA: GGGAGUUCUACAGUCCGACGAUCAGGAGCACAGCAGUUGUACAGCAGGGGUCCUCCUGCCCCUCAUAUUGUGGGAUCCACUCCCGGAUCUUUCCAAGGUGCUGCAUCGUCAGCAUCCCAUUUGCAUACGAGUGCCUCCCAACCCAACAGAGGAUUGAGCAUCA
B8: chr4:67617988:67618115:-|3pUTR|ENSG00000033178|unk|total|mutant (ssRNA)
RNA: GGGAGUUCUACAGUCCGACGAUCAAAUGCCGAAUGUUAAAAAUUAUUGCCCGGGCCGUCUUUUUUUUUUCCAGAAACCUAAUCCGGGUAUUAAAUUUUGUGUUUUUUUUGUUUUUUUUUUUUAAACAGAAGCAUGUUAUUUCACAACAGAGGAUUGAGCAUCA
B9: chr12:110381781:110381892:-|CDS|ENSG00000196510|unk|FALSE|unique (ssRNA)
RNA: GGGAGUUCUACAGUCCGACGAUCAAGGCCAUUCAGCUGAACAGUAAUAGUGUUCAAGCUCUGCUACUUAAGGGAGCAGCACUUAGGAACAUGGGCAGAGUCCAAGAAGCAAUAAUCCACUUUCGGGAGGCCAUACGGCUCGCACAACAGAGGAUUGAGCAUCA
B10: ENSG00000175470:stop:overlap|stop_codon|ENSG00000175470|stop_codon|NA|stop_codon (ssRNA)
RNA: GGGAGUUCUACAGUCCGACGAUCACAAUGUCAUUGCCGUGGCUGCCACCAAUAACUUGUACAUAUUCCAGGACAAAAUCAACUAGAGACGCGAACGUGAGGACCAAGUCUUGUCUUGCAUAGUUAAGCCGGACAUUUUUCUGUCAACAGAGGAUUGAGCAUCA
B11: chr12:66123492:66123593:-|3pUTR|ENSG00000139233|msi1|FALSE|unique (ssRNA)
RNA: GGGAGUUCUACAGUCCGACGAUCAUGCUACCCAAUAUCCAGUUAUAAUCAGGCCUCAACGUUCUGUCAGGUAUUAAUAUGGUUAGAAUUGUUCUUACAACUGGUAAUUAUAGUCAAUAGAGAUAAAACAGAUGAUGUACUGACCAACAGAGGAUUGAGCAUCA
B12: chrX:54470015:54470457:-|CDS|ENSG00000102302|control|control|control (ssRNA)
RNA: GGGAGUUCUACAGUCCGACGAUCUUCGUCAGUGAUGACGGGCCCCCCAGCCACAGCCUCUGCCCUGGGCCCCCUGCCCUGGCUAGUGUGCCUGUUGCCUUGGCCGACCCCCACCGGCCUGGCUCCCAAGAGGUUGACAGUGACCAACAGAGGAUUGAGCAUCA
B13: ENSG00000198589:be:win_5651|CDS|ENSG00000198589|bound_else_gene|NA|bound_elsewhere_windowed (ssRNA)
RNA: GGGAGUUCUACAGUCCGACGAUCUUAGCCAGACAAUGAAGGAUCAUCUAGUAAGAGUAGCAAAUGAAGCUGAAUUUAUCCUGAGCAGGCAGAGAGCAGAAGAUAUUCACAGACAUGCGGAAUUUGAGUCACUGUGUGCCCAGUCAACAGAGGAUUGAGCAUCA
B14: chr8:116643852:116643953:-|3pUTR|ENSG00000147677|unk|FALSE|unique (ssRNA)
RNA: GGGAGUUCUACAGUCCGACGAUCUGUUGUGAAUGAGGAAUUAGGAAUUAGGAGAAUGGUAGUACAUUGGGAAAAACAUAUUUUAGUAAUUUUUAUAUUUUAAAGAUAAUCACAGAUUUUGCUGUUUGUGCAUCACCAAAAUCACAACAGAGGAUUGAGCAUCA
B15: chr6:149410404:149410522:+|3pUTR|ENSG00000055208|unk|total|mutant (ssRNA)
RNA: GGGAGUUCUACAGUCCGACGAUCUUAUAUUUCUAUAUGUACCGUGUAACCGCCUUUUGUUAACUAAUUUUCUUUUUUCCUUUCCGUAAUUAAGCACGAUCAUGUCCCUUUUUAAGCCUUACCUGAGAGGAACAAUGCCUUAAACAACAGAGGAUUGAGCAUCA
B16: chr2:240466480:240466663:+|3pUTR|ENSG00000063660|msi1|total|mutant (ssRNA)
RNA: GGGAGUUCUACAGUCCGACGAUCGGAGCCAGUGUGCCCAAAAGCCAUGUAUUUCAGGGACCUCAGGGGCACCUCCGGCUGCCCCGCCCUCCCCCCAGCUCCCUGCACCGCCGCAGAAGCAGCCCCUCGAGGCCUACAGAGGAGCAACAGAGGAUUGAGCAUCA
B17: chr1:183252010:183252124:-|3pUTR|ENSG00000157064|unk|total|mutant (ssRNA)
RNA: GGGAGUUCUACAGUCCGACGAUCUCUUUGUUCACUCCCUGCCGAACUUGGAUGAAAUCAGUGUCCAUGGUUCUUUAUGUUUGCCGUCUUGAUGUGCUCCUGUGGUAUUACUUCCCCUCUGACCGGACAUUGCCGCCAGCCUCACAACAGAGGAUUGAGCAUCA
B18: ENSG00000119522:stop:overlap|stop_codon|ENSG00000119522|stop_codon|NA|stop_codon (ssRNA)
RNA: GGGAGUUCUACAGUCCGACGAUCUGGGCGAGUACGCUGGCAGUGACAAACUGUACCAUCAGUGGCUCUCCACUGUCCGGAUUUAGAUGUUAAGGAAGGCAGCCUACCAGAGAGAUUUAAAAAAACACCACAGAAAACCAAGGACAACAGAGGAUUGAGCAUCA
B19: ENSG00000136451:be:win_1001|CDS|ENSG00000136451|bound_else_gene|NA|bound_elsewhere_windowed (ssRNA)
RNA: GGGAGUUCUACAGUCCGACGAUCACCAAAAGCAGCAGCAGCAGCAGCAGCAGCAGCAGCAGCAGCAGCAACAACAACAACAACAACAUGUGACAAGCUGGCCAGGGAAGCAAGUAGAAACACUGAGACUGUGGGAAGAAGCUGCAACAGAGGAUUGAGCAUCA
B20: chr3:129431351:129431457:-|3pUTR|ENSG00000129071|unk|FALSE|unique (ssRNA)
RNA: GGGAGUUCUACAGUCCGACGAUCACUUCAAAAAAGCUUAAUUAAGUACAACCAACCACCUUUCCAGCCAUAGAGAUUUUAAUUAGCCCAACUAGAAGCCUAGUGUGUGUGCUUUCUUAAUGUGUGUGCCAAUGGUGGAUCUUUCAACAGAGGAUUGAGCAUCA
B21: chr4:69204429:69204649:-|CDS|ENSG00000213759|control|control|control (ssRNA)
RNA: GGGAGUUCUACAGUCCGACGAUCCCAUUGUUUUUUGAUCAACCUGAUAACAUUGCUCACAUGAAGGCCAAGGGAGCAGCUGUUAGAUUGGACUUCAACACAAUGUCGAGUACAGACCUGCUGAAUGCACUGAAGACAGUAAUUCAACAGAGGAUUGAGCAUCA
B22: chr8:41262032:41262394:-|3pUTR|ENSG00000104332|msi1|FALSE|unique (ssRNA)
RNA: GGGAGUUCUACAGUCCGACGAUCGGCCGUUCUGACCUGUUGCCAGCAGAUACACAGGACAUGGAUGAAAUUCCCGUUUCCUCUAGUUUCUUCCUGUAGUACUCCUCUUUUAGAUCCUAAGUCUCUUACAAAAGCUUUGAAUACCAACAGAGGAUUGAGCAUCA

The binders below were run against T1, UNK ZnF1-6 (called full-length) (assay: nsRBNS (natural sequence RNA bind-n-seq); RBNS binding buffer (assumed for nsRBNS): 25 mM Tris pH 7.5, 150 mM KCl, 3 mM MgCl2, 0.01% Triton X-100, 500 ug/ml BSA, 20 U/ml SUPERase-In, 4 C; UNK is unkempt and MSI1 is Musashi-1; names of the RNAs are library labels; protein concentration not given here; high values mean tight binding).

Q: For B1, which binding signal is on record?
A: The binding signal was 6.28 enrichment R.

Q: For B2, which binding signal is on record?
A: The binding signal was 0.638 enrichment R.

Q: B3 was tested. Which binding signal did it give?
A: Its binding signal is 0.609 enrichment R.

Q: Which binding signal does the source give for B4 here?
A: The binding signal was 0.757 enrichment R.

Q: Which binding signal does the source give for B5 here?
A: The binding signal was 0.392 enrichment R.

Q: For B6, which binding signal is on record?
A: Its binding signal is 1.22 enrichment R.

Q: How did the binding signal turn out when B7 was run?
A: The binding signal was 0.738 enrichment R.

Q: Which binding signal does the source give for B8 here?
A: Its binding signal is 0.765 enrichment R.

Q: For B9, which binding signal is on record?
A: Its binding signal is 0.854 enrichment R.

Q: How did the binding signal turn out when B10 was run?
A: Its binding signal is 0.704 enrichment R.

Q: For B11, which binding signal is on record?
A: The binding signal was 0.916 enrichment R.

Q: With B12 as the binder, how does the binding signal read?
A: Its binding signal is 1.48 enrichment R.

Q: For B13, which binding signal is on record?
A: The binding signal was 0.983 enrichment R.

Q: B14 was tested. Which binding signal did it give?
A: The binding signal was 22.5 enrichment R.

Q: How did the binding signal turn out when B15 was run?
A: Its binding signal is 4.24 enrichment R.

Q: With B16 as the binder, how does the binding signal read?
A: The binding signal was 0.698 enrichment R.

Q: B17 was tested. Which binding signal did it give?
A: Its binding signal is 0.646 enrichment R.

Q: Which binding signal does the source give for B18 here?
A: The binding signal was 0.997 enrichment R.

Q: How did the binding signal turn out when B19 was run?
A: Its binding signal is 0.905 enrichment R.

Q: For B20, which binding signal is on record?
A: Its binding signal is 5.99 enrichment R.

Q: Which binding signal does the source give for B21 here?
A: The binding signal was 0.475 enrichment R.

Q: B22 was tested. Which binding signal did it give?
A: Its binding signal is 3.06 enrichment R.
